Reference: patent US20230190875A1 (ACCELERON PHARMA, published 2023)

How the values were obtained:
Test in all cases: SPR (Biacore); Fc fusion captured by anti-Fc antibody, ligand injected
[1] = target: T1, BMP5 (UniProt P22003 317-454, limits assumed)
T1 sequence (looked up): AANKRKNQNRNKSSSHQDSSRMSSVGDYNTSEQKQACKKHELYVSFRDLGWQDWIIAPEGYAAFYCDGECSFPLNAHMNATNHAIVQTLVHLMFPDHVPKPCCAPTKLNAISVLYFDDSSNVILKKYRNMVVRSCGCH
Experimental: (§1) A Biacore™-based binding assay was used to compare ligand binding selectivity of the single-arm ActRIIA heterodimer Fc fusions described above with that of an ActRIIA homodimer Fc fusion. The single-arm ActRIIA heterodimer Fc fusions and ActRIIA homodimer Fc fusions were independently captured onto the system using an anti-Fc antibody. Ligands were injected and allowed to flow over the captured receptor protein.

[2] = target: T2, activin A (UniProt P08476 311-426)
T2 sequence (looked up): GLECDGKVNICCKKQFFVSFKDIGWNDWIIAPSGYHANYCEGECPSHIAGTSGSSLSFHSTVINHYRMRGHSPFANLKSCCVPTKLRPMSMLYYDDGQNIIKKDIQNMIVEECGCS
Experimental: as §1

[3] = target: T3, activin B (UniProt P09529 293-407)
T3 sequence (looked up): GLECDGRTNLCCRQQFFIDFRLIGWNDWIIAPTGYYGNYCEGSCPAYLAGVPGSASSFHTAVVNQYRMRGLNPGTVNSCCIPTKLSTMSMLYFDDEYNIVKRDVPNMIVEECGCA
Experimental: as §1

B1: ActRIIA homodimer Fc fusion (Fc fusion)
chain: not shown
notes: Comparator; also called homodimeric ActRIIA Fc fusion; not shown: linker and Fc domain of the homodimer are not described
- Kd [1]: 1.1 nM
- koff [1]: 0.0045 s⁻¹
- kon [1]: 4e+06 M⁻¹ s⁻¹
- Kd [2]: 0.045 nM
- koff [2]: 0.00062 s⁻¹
- kon [2]: 1.4e+07 M⁻¹ s⁻¹
- Kd [3]: 0.025 nM
- koff [3]: 0.0002 s⁻¹
- kon [3]: 7.9e+06 M⁻¹ s⁻¹
